# Test results from paper PMC6212790.
# Some of the results follow. At the low end of the ranking, values are background and their order means little.
# Target: T1, GST-Rok-C97-191 (UniProt O34857)
# T1 sequence: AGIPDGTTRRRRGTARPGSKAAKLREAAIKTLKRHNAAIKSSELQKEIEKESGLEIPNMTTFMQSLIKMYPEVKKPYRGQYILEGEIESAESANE
# Experiment: protein binding microarray;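 note: rank score from −0.5 (least bound) to 0.5 (best bound)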
# Conditions: Rok is a gene silencer of Bacillus subtilis; high values mean tight binding; most listed sequences are background and not binding sites; double strand, one strand shown
row,Sequence,binding signal [E-score]
1,CCGTTTGA,-0.0316
2,AAGGTGCC,-0.236
3,CGCGAGAA,-0.0156
4,CTTGCCAA,-0.0342
5,ACAGCCAG,-0.133
6,ATTAAACG,0.0877
7,AGAGTCGG,-0.123
8,GACGAGAC,-0.148
9,CGTCCTCC,-0.437
10,CGACATTC,-0.0652
11,CTTAAATA,0.199
12,ACATTCTA,0.242
13,AGGACGTA,0.0872
14,GGGATGGA,-0.212
15,GTCAAGAA,0.00189
16,TCAAATAA,-0.00421
17,CGTGTCGA,-0.142
18,GCGACAAA,-0.0747
19,AAGGCCTC,-0.356
20,GTTCATCA,-0.0161
21,ACAGTTGG,-0.0884
22,AATATATA,0.462
23,CCAGTGAC,-0.156
24,TGAGAGAA,-0.04
25,CGTCGGGC,-0.101

row,Sequence,binding signal [E-score]
1,CTATCCAC,-0.0301
2,CCAATGCG,-0.0622
3,ATTACACA,0.237
4,GGGATAGA,-0.0322
5,CGAGAGTA,0.15
6,AGGTGCTG,-0.144
7,GATTCCCC,-0.15
8,CCACTCAC,0.0769
9,GAGCATGA,0.0816
10,GATAGAAA,0.333
11,GAGGCGGC,-0.242
12,TGGACACA,-0.203
13,CGGTGTGC,-0.249
14,AAAAGTGT,-0.0291
15,AAGTTTCA,0.107
16,AGATTTAG,0.096
17,TCCTTGCA,0.0133
18,AATTTCAT,0.286
19,TGCCCTAA,-0.0538
20,CGCACACC,-0.145
21,CGCTAGCC,-0.204
22,GAATAGTC,0.0651
23,ACCGTCAT,-0.109
24,AACCATCG,0.061
25,CGCTGCTC,-0.354

row,Sequence,binding signal [E-score]
1,AAGACGAC,-0.0551
2,CCTCAGAG,-0.24
3,CGGTCGAC,-0.209
4,GCGGTTCA,-0.0423
5,CCCTGTGC,-0.0587
6,AAAGAAAA,-0.0291
7,CGATTTTA,0.23
8,CTCTTGTA,0.113
9,CCGTGTAC,0.018
10,TCCCCAGA,-0.313
11,ATTAGATA,0.32
12,CTAATCCA,0.00703
13,ACTAGGCG,-0.104
14,CACGGGAA,-0.0154
15,AACTCTGT,-0.081
16,CTGCATCC,0.0247
17,CGCTGTGA,-0.0932
18,ACTTTTGC,-0.132
19,CAACCAGC,-0.179
20,ATGACAAT,0.00548
21,CTGGTGGA,-0.216
22,GGTCACGA,-0.0446
23,CACCAAAA,-0.0744
24,ACACTGCG,-0.132
25,AGGCCCCT,-0.347

row,Sequence,binding signal [E-score]
1,CTGGGAAC,-0.0999
2,ATACATCA,0.213
3,AAACGCTG,-0.033
4,GCGTGACC,-0.0291
5,GGTCATAA,-0.00394
6,CGACCCTA,-0.0318
7,ATACGTTG,0.0779
8,AGCTATAC,0.208
9,AATCATGT,-0.0344
10,ATCTAACG,0.211
11,ACACCTGC,-0.197
12,CCCAGCAG,-0.112
13,ACCAGCAT,0.0241
14,AACTCAAG,0.0978
15,CAGGAACG,-0.0533
16,CATCAGGA,-0.199
17,CACGGCTC,-0.105
18,GGGTCGAC,-0.298
19,ATATCCAT,0.197
20,CTTATAGA,0.073
21,AAGTCACC,-0.0302
22,CGACTATC,-0.0118
23,ATCCAAAA,0.0916
24,CCTTCTGA,-0.235
25,CCCTGCGC,-0.162

row,Sequence,binding signal [E-score]
1,CCAAACCA,-0.102
2,CTTGTGCC,-0.124
3,GGCCACTA,-0.0465
4,TCTGTTCA,-0.0916
5,ACGCTATC,0.121
6,GAGCAAAA,-0.137
7,AAATTTTG,0.187
8,CGCTTAGC,-0.224
9,ACGCACAG,-0.0447
10,ATGTGTGA,-0.017
11,AGACTCGG,-0.171
12,AGCACTCC,0.0522
13,TTTATAAA,0.283
14,ATAGGGGC,-0.205
15,ATAGCTAG,0.271
16,GGGTGTTA,-0.0544
17,TCAGTCAA,-0.113
18,GCCACCGA,-0.0711
19,CCTCATTC,-0.0967
20,AGAAGGGC,-0.234
21,CGCAAACG,-0.0299
22,ACGGGCTC,-0.184
23,GACGGGGA,-0.238
24,GCTGAGCA,-0.0543
25,ATCGAGAT,0.104

row,Sequence,binding signal [E-score]
1,CGCAGGGC,-0.287
2,AAAGGGCG,-0.172
3,GTTATAAC,0.18
4,GCAGGTAC,0.0415
5,CTTACCCC,-0.204
6,CCGCCGTC,-0.247
7,CCCCGATA,-0.0977
8,ATGTTTTC,0.207
9,ACGGGATG,-0.0737
10,ACGCCAAC,-0.118
11,AGTAGAAC,0.234
12,ACATCATG,-0.155
13,AGATAAGA,-0.0192
14,ACAGGCTG,-0.19
15,CCCGTCTC,-0.241
16,AGAAAGCT,0.292
17,GTACCCGA,0.115
18,GGACTGTA,0.135
19,CGTTTATA,0.196
20,ACCAGGGG,-0.125
21,GCGCTAAA,0.143
22,ATAGGGCA,0.0459
23,CGACTGAC,-0.0626
24,AGATGAGC,-0.0848
25,GATACCGC,0.024

row,Sequence,binding signal [E-score]
1,CTTATCGC,0.155
2,CACTTAAG,2.2e-05
3,GGAAAACC,-0.0509
4,ATGTGTCC,0.0399
5,AGTTTCTC,0.244
6,GATCGCAA,0.0316
7,CGGGGCTA,-0.192
8,GAAATCAC,0.114
9,TGCCCACA,-0.149
10,ACAGCTCG,0.00556
11,AGTAACGG,0.118
12,CAAATCAC,0.0129
13,GCACCTAC,0.101
14,CGCATATA,0.0882
15,CAGGTTGA,-0.124
16,AACAAGGG,-0.173
17,GCTACTAC,0.264
18,CGCGTAAA,0.0976
19,GGAGAGAA,0.0553
20,AACTAGGC,0.0168
21,GGCCCATA,-0.0669
22,TAACAACA,0.00501
23,ACACACCT,0.0408
24,CGAACAGC,-0.182
25,GTTATAAA,0.247

row,Sequence,binding signal [E-score]
1,GAGTGACC,-0.317
2,AGGGACTC,-0.228
3,GGCTGAGA,-0.00381
4,CAGGGTAA,-0.053
5,AGAACTCA,-0.025
6,CAGATCGA,-0.0671
7,AATGATAA,0.255
8,GCTAACCA,-0.102
9,AGTATAGA,0.224
10,CGGGGCGA,-0.298
11,GGCTTGCA,-0.00502
12,AGCGAGCG,-0.0911
13,CAGCGGGG,-0.145
14,AACCGGAC,-0.00623
15,CCAGAGGC,-0.0209
16,CCGAATGC,0.015
17,CCTATTCG,-0.0809
18,CCAGACAA,-0.19
19,ACACACTG,-0.116
20,GTACAAAC,0.304
21,CGAAAATC,0.0534
22,ACGTTCCA,-0.0685
23,CTATTGAA,0.0715
24,ACAAGCCG,-0.177
25,TACACTCA,0.00258

row,Sequence,binding signal [E-score]
1,CCTCTCTC,-0.114
2,GTGCAGGA,-0.0316
3,CACGTGTC,0.0021
4,GCAATACA,0.079
5,CATTGTAG,0.161
6,AAACTCAT,0.0953
7,ACCAGATG,-0.0406
8,AACAGGTC,-0.195
9,ACCTGACC,-0.0121
10,AGGACGAC,-0.24
11,ATACGTTC,0.0985
12,AATTAGTG,0.28
13,ACTACCTC,0.26
14,CTGATACC,-0.0515
15,GAGTAGTA,0.305
16,CCTATTTA,0.315
17,ACACAGCC,-0.0644
18,GAGCAATC,-0.00778
19,TATAGTCA,0.119
20,GTCCTAAC,-0.11
21,CGACGACC,-0.148
22,AATAAAAC,0.228
23,GGAGCGCA,-0.312
24,CAAAAAGC,-0.211
25,ATAGGTCC,0.0227

row,Sequence,binding signal [E-score]
1,CCGTACGG,-0.141
2,ACTAGTCG,0.181
3,AAGGCCAC,-0.266
4,TAAGTAAA,0.27
5,TACCGTGA,0.14
6,CCGTTCAC,-0.0306
7,CTGTGTTA,0.0704
8,AGACTACT,0.198
9,CTCCCGAA,-0.108
10,CATCAACG,-0.00383
11,ACTTGTCA,0.229
12,ACTTGAAG,0.0191
13,TAGTCCGA,-0.0536
14,TATTTAAA,0.186
15,CCGGAACA,-0.172
16,GACCTTCA,-0.0794
17,AGTTTGTA,0.367
18,AGGGACAT,-0.143
19,AGGTCGCC,-0.312
20,ATTGCTTA,0.102
21,AGGATTAT,0.151
22,GGTTGAAA,-0.00182
23,GTCAACAA,0.0719
24,GCAACGGA,-0.142
25,GATGTCAC,-0.109

row,Sequence,binding signal [E-score]
1,GAACAACC,-0.0483
2,AGGTGTTA,0.0754
3,CAGTGTAC,0.0867
4,CTGGCTGC,-0.155
5,CCTGGTAG,0.151
6,CTGGCAAA,-0.0718
7,ACCCCAGT,-0.17
8,GACTATGA,-0.0171
9,CACTCGCA,-0.00263
10,ATAACTCC,0.18
11,GCCGGTCC,-0.247
12,TACGTGAA,0.0208
13,ATAGCCGA,0.0034
14,GTAATAAA,0.236
15,CATAGTCG,0.0698
16,AAGGGGCC,-0.321
17,CTCTCGAA,0.0245
18,AGCCTGGA,-0.197
19,AGGAGGAA,-0.0927
20,CGTTCCTA,0.0168
21,GACTCAAA,-0.0688
22,AGACCACC,-0.21
23,AACCATCT,0.0317
24,CGCACTCA,-0.138
25,GCTGTTAC,0.0773

row,Sequence,binding signal [E-score]
1,GTTCGAAC,0.133
2,CTTGGTTC,0.0268
3,CGAAGGAC,-0.192
4,CGGCACCC,-0.299
5,TACTCCAA,0.0607
6,CGTCCGAA,-0.115
7,CCTCGAAA,-0.00929
8,CGTGATGA,-0.0667
9,AGGACTAT,0.145
10,CGCACCTA,0.037
11,CTAGAAGC,-0.138
12,AAATTCTT,0.105
13,CGAGGTCC,-0.0508
14,GCGATTCA,-0.0584
15,AATCGATT,-0.107
16,CATTTCAA,0.114
17,CAACCGAA,0.0469
18,AAGTCACA,-0.000968
19,CACTTAGC,0.0257
20,CCAGCCCC,-0.338
21,AACGACTG,-0.182
22,AGGCCATC,-0.164
23,CGGCACGA,-0.274
24,TACCCAAA,0.0353
25,AACCCCTC,-0.123

row,Sequence,binding signal [E-score]
1,CGGGCATA,-0.0964
2,ATTTCTTA,0.151
3,ACATGCTC,0.0356
4,AATGCGAA,0.0558
5,CTAGCATC,0.141
6,CGCTTGCC,-0.202
7,GTGACCCA,-0.0919
8,GACATGCA,-0.183
9,CCTCCTCA,-0.178
10,TAGAAGCA,0.197
11,CTATCCAA,-0.0742
12,AACCGTGT,-0.0625
13,TGCACAAA,-0.0954
14,CAAGACCC,-0.281
15,CGAGCCAG,-0.244
16,CAAGATTA,0.0918
17,ATGCCAAA,-0.208
18,AGTATTCC,-0.0921
19,GTACCGAA,-0.0121
20,TCACGAAA,-0.0451
21,GGAACGCA,-0.0666
22,CGAATCAC,-0.171
23,AGGTTAGC,-0.0885
24,AAAGACTA,0.111
25,GGTATGAA,0.119

row,Sequence,binding signal [E-score]
1,GGCGGTGA,-0.0749
2,GTGCTGCA,-0.0632
3,CGTCGCTA,0.105
4,ATTAAGCC,0.0195
5,AGGTACAC,-0.106
6,AGGAGTAG,0.113
7,CATTGTTA,0.145
8,AAGGTTAG,-0.0372
9,ACGGTCGA,-0.0568
10,AGTCGACC,-0.0544
11,CATGATTC,-0.00639
12,AATCAAGT,0.0582
13,CGTACGAG,-0.023
14,ATATGCTG,0.0765
15,GTCTACCA,0.15
16,AAACTGCT,-0.00271
17,GAAAATTC,-0.0744
18,CTTTCGAA,0.00635
19,AATATAAT,0.23
